{
  "source": "PubChem BioAssay AID1030",
  "about": "(National Center for Advancing Translational Sciences (NCATS), 2008)",
  "note": "Screen size: about 220,000 compounds; about 16,000 (7.3%) were called active. Inconclusive means that the source gave no clear call. Such entries were picked first, then a sample of the others. Calls follow the shape of the dose curve; as a rule, active = well fitted inhibition curve with a large enough effect (not every such curve was filed as active); inconclusive = small, poorly fitted or top-dose-only effect, or another doubt; inactive = no such curve, though single readings can be large or run the other way. No potency is given beside an inconclusive call; the fits are too rough. Potency is read from the fitted curve at half-maximal effect; tags tell the direction and shape of the fitted curve.",
  "data": [
    {"target": "Aldehyde dehydrogenase 1A1 (Homo sapiens) (UniProt P00352)", "sequence (P00352 whole entry, looked up)": "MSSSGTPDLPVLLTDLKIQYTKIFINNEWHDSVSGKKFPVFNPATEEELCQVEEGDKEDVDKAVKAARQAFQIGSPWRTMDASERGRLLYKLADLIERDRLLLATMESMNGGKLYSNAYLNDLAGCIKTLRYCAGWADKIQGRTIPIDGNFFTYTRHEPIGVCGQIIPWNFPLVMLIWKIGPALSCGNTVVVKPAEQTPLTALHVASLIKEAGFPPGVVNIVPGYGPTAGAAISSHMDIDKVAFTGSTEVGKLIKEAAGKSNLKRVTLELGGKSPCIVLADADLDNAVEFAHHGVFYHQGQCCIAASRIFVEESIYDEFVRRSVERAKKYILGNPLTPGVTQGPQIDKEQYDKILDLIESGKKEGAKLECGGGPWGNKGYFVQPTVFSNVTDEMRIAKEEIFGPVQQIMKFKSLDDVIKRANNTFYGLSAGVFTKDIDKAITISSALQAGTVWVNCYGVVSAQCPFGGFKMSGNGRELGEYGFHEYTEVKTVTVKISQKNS", "assay": "qHTS Assay for Inhibitors of Aldehyde Dehydrogenase 1 (ALDH1A1);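 as to activity, negative = inhibition: plate controls were no enzyme wells and a reference inhibitor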", "details": "Purified ALDH1A1, NADH fluorescence, propionaldehyde substrate; series mostly up to 75.3 µM", "values": [
      {"compound": "O=C1C(NS(=O)(=O)c2cccs2)=C(N2CCN(c3cccc(C(F)(F)F)c3)CC2)C(=O)c2ccccc21", "Potency": "inconclusive [inhibitor, partial curve, poor fit]"},
      {"compound": "COc1ccccc1C(=O)N1CCN(Cc2cn[nH]c2-c2ccc(F)cc2F)CC1", "Potency": "inconclusive [inhibitor, partial curve]"},
      {"compound": "COc1cc(C(c2nnnn2C(C)(C)C)N2CCN(c3nc4ccccc4s3)CC2)ccc1O", "note": "(stereo unspecified)", "Potency": "inconclusive [inhibitor, single point]"},
      {"compound": "Cc1ccc(C)c(NC(=S)NNC(=O)c2cc3c(s2)CCC(C)C3)c1", "note": "(stereo unspecified)", "Potency": "active: 22.4 µM"},
      {"compound": "COc1cccc2c3c(c(C)nc12)CC(C)O3", "note": "(stereo unspecified)", "Potency": "inconclusive [inhibitor, partial curve]"},
      {"compound": "CCOCCCNC(=O)CNC(=S)N(Cc1ccccc1F)C1CCCCC1", "Potency": "active: 14.1 µM"},
      {"compound": "CC(=O)OCC1(C)CN(c2ccccc2)NC1=O", "note": "(stereo unspecified)", "Potency": "active: 10 µM"},
      {"compound": "O=C(COC(=O)c1cc([N+](=O)[O-])ccc1NCCO)c1ccccc1", "Potency": "active: 25.1 µM"},
      {"compound": "COc1ccc(OCC(=O)NCCc2ccc(S(N)(=O)=O)cc2)cc1", "Potency": "inactive"},
      {"compound": "O=c1cc(-c2ccccc2O)oc2c(O)c(O)ccc12", "Potency": "active: 2.51 µM"},
      {"compound": "C=CCN1c2ccccc2[C@]23C[C@@H](C(=O)OC)N(S(=O)(=O)c4ccc(Br)cc4)C2=NC(C(=O)OC)=C(C(=O)OC)[C@H]13", "activity, negative = inhibition": "inactive: 15.9% [at 13.5 µM]"},
      {"compound": "CC/C(C)=N/NC(=S)NCc1ccco1", "Potency": "inactive"},
      {"compound": "CCCC(=O)Nc1sc2c(c1C#N)CCCC2", "Potency": "inconclusive [inhibitor, partial curve, poor fit]"},
      {"compound": "COc1cccc(-c2nccc(NCc3cccs3)n2)c1", "Potency": "inconclusive [inhibitor, full curve, poor fit]"},
      {"compound": "Cc1nc2sc(C(N)=O)c(N)c2c(C)c1CC(=O)c1ccccc1", "Potency": "inactive"},
      {"compound": "CN(CCCNC(=O)c1cc2c(=O)[nH]c3ccccc3c2n1C)Cc1ccccc1", "Potency": "inconclusive [inhibitor, partial curve]"},
      {"compound": "Cc1ccc(S(=O)(=O)N2CCCCC2)cc1NC(=O)CSc1nncn1-c1ccccc1", "Potency": "inconclusive [inhibitor, partial curve]"},
      {"compound": "COc1ccc(CNC(=O)CSc2nc3[nH]ncc3c(=O)n2-c2ccccc2Br)cc1", "Potency": "active: 15.8 µM"},
      {"compound": "CCc1cc(C(=O)OC)c(NC(=O)CC2SC(=NC)N(C)C2=O)s1", "note": "(stereo unspecified)", "Potency": "inactive"},
      {"compound": "CCCC(=O)Nc1ccc(C(=O)n2nnc3ccccc32)cc1", "Potency": "inconclusive [inhibitor, single point]"},
      {"compound": "N#CC1=C(N)SC(N)=C(C#N)C1c1cccc(Oc2ccccc2)c1", "Potency": "active: 10 µM"},
      {"compound": "COc1cccc(-c2noc(CCC(=O)Nc3cccnc3)n2)c1", "Potency": "inactive"},
      {"compound": "CN(C)C(CNC(=O)CCCOc1ccccc1)c1ccco1", "note": "(stereo unspecified)", "Potency": "inconclusive [inhibitor, partial curve]"},
      {"compound": "CCO[C@H]1OC(C(=O)Nc2ccccc2)=C[C@@H](C)[C@@H]1CCCO", "Potency": "inactive"},
      {"compound": "C=CCn1cc(-c2ccccc2)cc(C#N)c1=O", "Potency": "inconclusive [inhibitor, partial curve]"},
      {"compound": "C=CCOC(=O)NC(c1ccc(F)c(F)c1)C(C(=O)CCl)C(=O)OC", "note": "(stereo unspecified)", "Potency": "active: 10 µM"},
      {"compound": "CC(C)(C)c1cc(C(=O)N/N=C/c2ccc([N+](=O)[O-])s2)n[nH]1", "Potency": "inactive"},
      {"compound": "COc1ccc(CCNC(=O)Cn2nc([N+](=O)[O-])c(Br)c2C)cc1OC", "Potency": "inactive"},
      {"compound": "Cc1ccc(NC(=O)Cn2c(=O)cnc3ccccc32)cc1S(=O)(=O)N(C)C", "Potency": "active: 14.1 µM"},
      {"compound": "CC1CCc2c(C(=O)Nc3ccc(N4CCOCC4)cc3)csc2C1", "note": "(stereo unspecified)", "Potency": "inactive"},
      {"compound": "CC(=O)c1cccc(N=C2NC(=O)C(CO)(CO)S2)c1", "Potency": "inconclusive [inhibitor, single point]"},
      {"compound": "CC(C)c1nc2oc3c(NCC4CCCO4)ncnc3c2c2c1COC(C)(C)C2", "note": "(stereo unspecified)", "Potency": "inconclusive [inhibitor, partial curve]"},
      {"compound": "Cc1ccccc1/C=C/c1nc2ccccc2c(=O)n1CCc1ccccc1", "Potency": "inactive"},
      {"compound": "O=C(COC(=O)c1ccc(-c2ccc([N+](=O)[O-])cc2)o1)NC(=O)NC1CCCCC1", "Potency": "inconclusive [inhibitor, partial curve]"},
      {"compound": "CCOc1ccc(N(CC(=O)Nc2ccc3c(c2)OCCO3)S(=O)(=O)c2c(C)noc2C)cc1", "Potency": "inconclusive [inhibitor, single point]"},
      {"compound": "Cc1cc(C)c(O)c(-c2cc(C(=O)NCc3ccccc3)[nH]n2)c1", "Potency": "inconclusive [inhibitor, single point]"},
      {"compound": "O=C(Nc1ccc(S(=O)(=O)Nc2nccs2)cc1)c1ccc(N2C(=O)c3ccccc3C2=O)cc1", "Potency": "inactive"},
      {"compound": "C=C(C)C1CC=C(C)/C(=N\\NC(=S)Nc2ccc(C)cc2)C1", "note": "(stereo unspecified)", "Potency": "inconclusive [inhibitor, single point]"},
      {"compound": "CCOC(=O)c1ccc(NC(=S)Nc2ccc3[nH]c(=O)[nH]c3c2)cc1", "Potency": "inconclusive [inhibitor, single point]"},
      {"compound": "Cn1cnnc1SCC(=O)c1cc2ccccc2o1", "Potency": "inconclusive [inhibitor, single point]"},
      {"compound": "CCOC(=O)C1=C(C)NC2=C(C(=O)CCC2)C1c1cccs1", "note": "(stereo unspecified)", "Potency": "inconclusive [inhibitor, single point]"},
      {"compound": "Cc1ccc(SCC(=O)Nc2ccc(S(=O)(=O)Nc3nccs3)cc2)cc1", "Potency": "inconclusive [inhibitor, single point]"},
      {"compound": "COC(=O)c1c[nH]n2c(=O)c(Cc3ccc(F)cc3Cl)c(C)nc12", "Potency": "inconclusive [inhibitor, single point]"},
      {"compound": "O=C(NC1CCN(C(=S)NCCc2ccccc2)CC1)C1CC1", "Potency": "inactive"},
      {"compound": "CCC(=O)Nc1ccc(C(=O)N/N=C/c2ccccc2[N+](=O)[O-])cc1", "Potency": "active: 28.2 µM"},
      {"compound": "O=C(NC1CCCC1)C(c1cccnc1)N(C(=O)c1csnn1)C1CC1", "note": "(stereo unspecified)", "Potency": "inactive"},
      {"compound": "c1ccc2c(c1)[nH]c1c(N3CCOCC3)ncnc12", "Potency": "inconclusive [inhibitor, single point]"},
      {"compound": "COc1ccc(/C=C2\\COc3ccccc3C2=O)cc1OC", "Potency": "inconclusive [inhibitor, single point]"},
      {"compound": "CCOC(=O)N1CCN(S(=O)(=O)c2cc([N+](=O)[O-])ccc2C)CC1", "Potency": "inactive"},
      {"compound": "Cc1ncc(CN2CCN(C(C)C)C(CCO)C2)s1", "note": "(stereo unspecified)", "Potency": "inactive"},
      {"compound": "CCOC(=O)N1CCN(CC(=O)Nc2sccc2C#N)CC1", "Potency": "inactive"},
      {"compound": "CC(C)NC(=O)N1CC[C@@]2(CCCN(S(C)(=O)=O)C2)C1", "Potency": "inactive"},
      {"compound": "CCc1nnc(NC(=O)c2ccc(S(=O)(=O)N3CCCc4ccccc43)cc2)o1", "Potency": "inactive"},
      {"compound": "N#CSCC(=O)c1cccc2ccccc12", "Potency": "active: 1.58 µM"},
      {"compound": "CCCn1c(SC(C)C(=O)O)nc2ccccc21", "note": "(stereo unspecified)", "Potency": "inconclusive [inhibitor, full curve]"},
      {"compound": "CCOC(=O)C1(Cc2ccccc2)CCN(Cc2ccon2)CC1", "Potency": "inconclusive [inhibitor, single point]"},
      {"compound": "Cc1ccc(C(=O)N/C(=C\\c2cccs2)C(=O)NCCc2ccccn2)cc1C", "Potency": "inconclusive [inhibitor, single point]"},
      {"compound": "Cc1ncoc1C(=O)Nc1nccs1", "Potency": "inactive"},
      {"compound": "CC(C)CC1(C)NC(=O)N(Cc2cc([N+](=O)[O-])cc3c2OCOC3)C1=O", "note": "(stereo unspecified)", "Potency": "inconclusive [inhibitor, single point]"},
      {"compound": "Cc1ccc(SCCNC(=S)Nc2ccccc2)cc1", "Potency": "inactive"},
      {"compound": "CCC(Sc1ncccc1C(=O)O)C(=O)N1CCCC1", "note": "(stereo unspecified)", "Potency": "inactive"},
      {"compound": "Nc1nonc1C(=O)N/N=C/c1ccncc1", "Potency": "inconclusive [inhibitor, single point]"},
      {"compound": "C=C(COC)C1=CCC(C(=O)OC)(C(=O)OC)[C@@H](C[N+](=O)[O-])c2ccccc21", "Potency": "inactive"},
      {"compound": "COCCn1nnnc1C(C(C)C)N(Cc1ccccc1)Cc1cc2cc(OC)ccc2[nH]c1=O", "note": "(stereo unspecified)", "Potency": "inconclusive [inhibitor, partial curve]"},
      {"compound": "CCCn1c(-c2ccc(F)cc2)nc2c(NCCN3CCSCC3)nc(C)nc21", "Potency": "inconclusive [inhibitor, single point]"},
      {"compound": "COC(=O)c1cnc(SC)nc1C", "Potency": "inactive"},
      {"compound": "CC1(C)CC2CC(C)(CN2S(=O)(=O)c2ccc(C(=O)Nc3cc(S(=O)(=O)N4CCOCC4)ccc3Cl)cc2)C1", "note": "(stereo unspecified)", "Potency": "inconclusive [inhibitor, partial curve]"},
      {"compound": "CC(C)NC(=O)N1CCC2(CC1)CCN(C(=O)c1ccco1)CC2", "Potency": "inconclusive [inhibitor, single point]"},
      {"compound": "O=C(CCNc1ccc(Cl)cc1)c1cccs1", "Potency": "active: 3.16 µM"},
      {"compound": "CCOc1ccccc1OCC(=O)Nc1ccc(S(=O)(=O)N(C)C)cc1", "Potency": "inactive"},
      {"compound": "COc1ccc(NC2CC(=O)N(c3cccc(C)c3)C2=O)cc1", "note": "(stereo unspecified)", "Potency": "inconclusive [inhibitor, single point]"},
      {"compound": "CSc1nn2cc(CCN3CCOCC3)c(-c3ccc(F)cc3)nc2c1C#N", "Potency": "inconclusive [inhibitor, single point]"},
      {"compound": "OC(COc1cccc2ccccc12)CN1CCN(c2ccccn2)CC1", "note": "(stereo unspecified)", "Potency": "inconclusive [inhibitor, single point]"},
      {"compound": "CCOc1ccc(-c2[nH]nc3c2C(c2ccc(O)cc2)C(C#N)=C(N)O3)cc1", "note": "(stereo unspecified)", "Potency": "active: 17.8 µM"},
      {"compound": "COc1ccc(C2C(C(=O)c3ccccc3)N3c4ccccc4C=CC3C2[N+](=O)[O-])cc1", "note": "(stereo unspecified)", "Potency": "active: 25.1 µM"},
      {"compound": "Cc1c(Br)c(=O)[nH]c(=O)n1COCc1ccccc1", "Potency": "inconclusive [inhibitor, single point]"}
    ]}
  ]
}
